Reference: PubChem BioAssay AID1159614 (National Center for Advancing Translational Sciences (NCATS), 2016)
The campaign covered roughly 45,000 compounds. About 65 (0.1%) were called active. Calls come from the whole dose curve; as a rule, active = well fitted activation curve with a large enough effect; inconclusive = small, poorly fitted or top-dose-only effect; inactive = no such curve, though single readings can be large or run the other way. The list shows a part of the results.

What follows are compounds tested against Galactocerebrosidase (Homo sapiens) (UniProt P54803) (assay: A Novel Cell-Based Assay to Identify Small Molecules for B -Galactocerebrosidase). Details: 145M-Twi-hGALC-G270D cells, HMU-beta-Gal fluorescence, 48 h; series mostly up to 57.5 µM; activation: at the top concentration.
Outline: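 qHTS, 1536-well; 145M-Twi-hGALC-G270D cells (WT line also made) in DMEM/F12 + 10% FBS; compound incubation on live cells; HMU-β-gal 0.1 mM final, pH 5.2, NaTC; carbonate stop; fluorescence increase = enhanced residual activity.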
Note: nearly all actives have a fitted effect of over 65% in size.
Potency is the fitted concentration of half-maximal effect.
Throughout, for activation: 0% is about no effect.

UniProt P54803, sequence (P54803 whole entry, looked up): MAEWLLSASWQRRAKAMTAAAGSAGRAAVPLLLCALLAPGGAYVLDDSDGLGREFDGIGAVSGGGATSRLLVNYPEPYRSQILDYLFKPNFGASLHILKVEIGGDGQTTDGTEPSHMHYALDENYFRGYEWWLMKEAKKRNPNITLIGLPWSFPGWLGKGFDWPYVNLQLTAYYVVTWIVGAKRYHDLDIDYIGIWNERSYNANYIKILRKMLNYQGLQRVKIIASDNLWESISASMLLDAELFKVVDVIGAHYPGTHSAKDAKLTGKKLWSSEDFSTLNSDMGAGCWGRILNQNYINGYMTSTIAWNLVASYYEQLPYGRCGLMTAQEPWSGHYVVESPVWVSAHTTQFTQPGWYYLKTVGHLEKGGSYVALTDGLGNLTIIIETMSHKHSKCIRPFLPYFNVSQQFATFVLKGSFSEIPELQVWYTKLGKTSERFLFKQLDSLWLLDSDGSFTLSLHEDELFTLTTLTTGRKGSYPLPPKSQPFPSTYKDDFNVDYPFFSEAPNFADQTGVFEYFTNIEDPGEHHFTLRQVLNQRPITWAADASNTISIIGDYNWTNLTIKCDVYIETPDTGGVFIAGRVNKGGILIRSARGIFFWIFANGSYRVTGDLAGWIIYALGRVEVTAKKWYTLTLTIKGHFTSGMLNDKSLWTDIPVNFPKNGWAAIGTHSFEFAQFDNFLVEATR

activation, inactive:
Cc1ccc(C)c(N2CCN(C(=O)Cn3ncc4c(=O)oc5ccc(C)cc5c43)CC2)c1 -15.4%, COc1ccc(S(=O)(=O)NCCc2nnc3ccc(SCC(=O)Nc4ccc(C(F)(F)F)cc4)nn23)cc1 -6.26%, C/C=C/C(=O)N(CC)c1ccccc1C -31.2%, CC(=O)c1ccc(NS(=O)(=O)c2cc3[nH]c(=O)c(=O)[nH]c3cc2C)cc1 -9.82%, COC(=O)c1ccc2c(=O)n(CCCCCC(=O)NCc3ccccc3)c(=O)[nH]c2c1 -12.7%, Cc1cccc(-n2c3c(cc(-c4nc(-c5ccc(Cl)cc5)cs4)c2=O)C(=O)CC(C)(C)C3)c1 -18.5%, CCn1cc(C2N3CC4(CC)CN2CC(CC)(C3)C4=O)c2ccccc21 (stereo not given) -25.2%, O=C(CN1CCSc2ccccc21)N1CCN(c2ccccc2)CC1 -2.59%, CCc1ccc(NC(=O)c2cc(-c3cccs3)on2)cc1 -14%, C=C[C@H]1CN2CC[C@H]1C[C@@H]2[C@@H](O)c1ccnc2ccc(OC)cc12 -6.61%, CCc1ccc(CSc2nc(-c3ccccc3OC)nc3c2Cc2c(CO)cnc(C)c2O3)cc1 -15.9%, O=C(C1CCCN(S(=O)(=O)c2cccc3nonc23)C1)N1CCN(c2cccc(Cl)c2)CC1 (stereo not given) 16.5%, CCCn1c(=N)c(C(=O)NCc2cccnc2)cc2c(=O)n3cc(C)ccc3nc21 -2.66%, COc1cccc(/C=C/c2nc(C#N)c(N3CCCCC3)o2)c1 -12.5%, O=C(c1cnc2cc(-c3ccccc3)nn2c1)c1cc([N+](=O)[O-])ccc1O 33.6%, Cc1ccccc1Cn1nc(C)c(NC(=O)c2cc(-c3ccc(F)cc3)on2)c1C -9.81%, CSc1ccc(CCNC(=O)CCc2c(C)nc3c(-c4ccccc4)c(C)nn3c2C)cc1 4.27%, CCOc1ccccc1CNc1ncnc2c1nc1n2CCCC1 -3.83%, Cc1ccc(Cn2ccn(CC(=O)Nc3ccccc3C(F)(F)F)c(=O)c2=O)cc1 -0.388%, CCOc1ccc(CCNC(=O)CS(=O)Cc2nc(-c3ccc(C)cc3)oc2C)cc1OCC (stereo not given) -12.9%, CCOC(=O)c1cnc2cc(C(F)(F)F)ccc2c1N1CCN(c2ccc(F)cc2)CC1 -18%, COc1ccccc1CNC(=O)C1CCCN(c2nn3cc(-c4ccc(F)cc4)nc3s2)C1 (stereo not given) -3.73%, COc1ccccc1CNC(=O)CCc1c(C)nc2cc(-c3ccccc3OC)nn2c1C -6.21%, COc1ccc(CNC(=O)Cn2ccc3cc(S(=O)(=O)N4CCCCC4)ccc32)c(OC)c1 -38.2%, Cc1ccc(NC(=O)CN2CCCN(Cc3ccccc3Cl)S2(=O)=O)c(C)c1 -27%, CCOCCc1nn2c(=O)cc(COC(=O)COc3ccccc3Cl)nc2s1 -8.44%, Cc1cc(Cl)ccc1NC(=O)CN1C(=O)CSc2ccc(S(=O)(=O)N(C)C)cc21 -9.67%, Cc1c(C(N)=O)cc([N+](=O)[O-])cc1[N+](=O)[O-] -4.06%, CCOc1ccccc1NC(=O)Cn1c(=O)n(CCCC(=O)NCCOC)c(=O)c2cc(OC)c(OC)cc21 -16%, CCOC(=O)c1c(C)[nH]c(C)c1S(=O)(=O)N1CCC(C(=O)Nc2ccc(F)cc2F)CC1 0.618%, CC(=O)c1ccc(NC(=O)c2ccc3c(c2)N(Cc2cccc(Cl)c2)C(=O)c2ccccc2S3(=O)=O)cc1 -2.43%, CCc1ccccc1NC(=O)Cn1nnc(-c2nc(-c3ccc(C)cc3)no2)c1N -9.06%, CCOC(=O)c1ccccc1NC(=O)CN1C(=O)CC(c2ccco2)Sc2ccccc21 (stereo not given) 5.85%, Cc1ccc2c(c1)sc1nc(-c3cc4ccccc4oc3=O)cn12 -8.29%, CCn1cc(C(=O)N2CCN(c3ccc(F)cc3)CC2)c(=O)c2cc(S(=O)(=O)N3CCOCC3)ccc21 -10.3%, COc1ccc(N2CCN(c3c4c(nc5nncn35)CCC4)CC2)cc1 -5.44%, COc1ccc(NC(=O)C(=O)NCC(c2ccc3c(c2)OCO3)N2CCN(C)CC2)cc1 (stereo not given) -6.85%, Cc1oc(-c2ccc(Cl)cc2)nc1Cn1c(=O)cc(C)c2c(C)nn(-c3cccc(F)c3)c21 -13.2%, Cc1ccc(C(=O)Nc2ccc(C(=O)OCc3cc(=O)n4nc(C5CC5)sc4n3)cc2)cc1 7.75%, CC(=O)Nc1cccc(NC(=O)CSc2cn(CC(=O)N(C(C)C)C(C)C)c3ccccc23)c1 -17.2%, CCOc1cc(CNC(=O)CCCn2c(=O)c3cccn3c3cccnc32)cc(OCC)c1OCC 0.178%, CCc1ccccc1NC(=O)CSc1ncc(S(=O)(=O)c2ccccc2)c(N)n1 -1.19%, COc1ccc(CCNC(=O)c2cc(Nc3cc(C)cc(C)c3)nc3ccccc23)cc1OC -8.36%, Cc1cccc(N(CC(=O)NCCSCc2ccc(Cl)cc2)S(C)(=O)=O)c1C -7.65%, COc1cccc(CNC(=O)C2CCN(c3nn4c(=O)cc(C)nc4s3)CC2)c1 -4.32%, CCN(CC)CCOC(=O)C1(c2ccccc2)CCCC1 -12.3%, O=C(NCCCN1CCN(c2cccc(Cl)c2)CC1)Nc1ccccc1C(F)(F)F -3.45%, O=C(NC1CC(=O)N(c2ccccc2)C1)c1ccc(Br)o1 (stereo not given) -4.68%, COc1ccccc1Cn1c(CNS(=O)(=O)c2ccccc2Cl)nc2cccnc21 -4.78%, CC(=O)c1cccc(NC(=O)c2cccn2-c2nnc(N3CCCCC3)s2)c1 -23.1%, CCOc1ccc(NC(=O)c2cc3c(n(-c4ccc(OC)cc4)c2=O)CC(C)(C)CC3=O)cc1 -10.2%, COc1ccc(NC(=O)CN2C(=O)COc3ccc(S(=O)(=O)Nc4ccccc4)cc32)cc1OC -7.15%, O=C(COCc1cc(-c2cccs2)on1)Nc1cccc(Cl)c1Cl -9.49%, Cc1c(Cl)cccc1Nc1nn2c(=O)c3ccc(C(=O)NCCc4ccccc4)cc3nc2s1 -14.7%, CCN(c1cccc(C)c1)S(=O)(=O)c1ccc2c(c1)NC(=O)CCS2 13.2%, CCOC(=O)c1ccc2c(c1)N(CC(=O)Nc1ccc(C)cc1C)C(=O)c1ccccc1S2 1.19%, CCN(CC)C(=O)Cn1cc(SCC(=O)Nc2ccccc2F)c2ccccc21 -14.7%, COc1ccc(NC(=O)c2nnn(Cc3nc(-c4cc(OC)c(OC)c(OC)c4)oc3C)c2C)cc1 -5.86%, CCOC(=O)Cn1c(=O)oc2cc(S(=O)(=O)N3CCN(c4ccccc4F)CC3)ccc21 -17%, CSc1cccc(NC(=O)C2CCN(c3ncnc4c3nc3n4CCCCC3)CC2)c1 3.97%, O=C(c1ccc(F)cc1)N1CCC(c2nc3ccccc3o2)CC1 -10.1%, O=C(NC1CCCCCC1)c1cc2c(Cl)nc3ccccc3c2s1 -1.68%, CCOc1ccccc1NC(=O)C(NS(=O)(=O)c1ccc2c(c1)CCC(=O)N2)c1ccccc1 (stereo not given) -10.9%, N=C(N)N -9.74%, CC(C)NC(=O)CC(=O)Nc1ccc2nc3n(c(=O)c2c1)CCCCC3 -9.64%, COc1ccc(-c2nc(C(N)=O)c3c(n2)n(-c2ccccc2OC)c(=O)n3C)c(OC)c1 -2.66%, O=C(c1ccc2c(c1)N(Cc1ccc(Cl)cc1)C(=O)c1ccccc1S2=O)N1CCN(c2ccccc2F)CC1 (stereo not given) -9.79%, CCOC(=O)c1ccc(NC(=O)C2=C(C)Nc3nc(SCc4ccc(Cl)cc4)nn3C2c2ccc(C)cc2)cc1 (stereo not given) -9.71%, CCCCOc1ccc(C(=O)N2CCC(c3nc4ccccc4o3)CC2)cc1 -19%, Cc1nn(C(=O)COc2ccccc2)c(C)c1Sc1ccccc1 -13.5%, CCOc1ccc(CC(=O)NCCc2csc(-c3ccc(C(F)(F)F)cc3)n2)cc1 -12.2%, CC(C)(C)c1ccc(Oc2nc3ccccn3c(=O)c2/C=C(\C#N)c2nc3ccccc3[nH]2)cc1 -29%, COc1ccc(CNC(=O)c2ccc3c(c2)N(C)C(=O)C2CCCCN32)cc1OC (stereo not given) -20.2%, O=C(CCC(=O)N1CC2CCCN2c2ccccc21)NCc1ccccc1 (stereo not given) -20.1%, CCOC(=O)c1ccc(NC(=O)CCn2c(=O)c3cccn3c3cccnc32)cc1 -10.9%, O=C(Nc1ccc(F)cc1F)c1cc(-c2ccc(Cl)cc2)on1 -9.38%, CCN(CC)C(=O)Cn1c(=O)n(-c2ccc(C)c(C)c2)c(=O)c2c3c(sc21)CCCCC3 -10.3%, CCc1cccc(NS(=O)(=O)c2ccc(-n3cccn3)cc2)c1 -36.6%, CCCCS(=O)(=O)CC(O)CSc1nc(-c2ccc(C)cc2)cc(-c2ccccc2)c1C#N (stereo not given) -10.2%, COc1cccc(C(=O)Nc2cccc(-c3cn4ccsc4n3)c2)c1OC -32.5%, Cc1ccccc1-c1noc(-c2cccnc2N2CCN(c3ccccc3)CC2)n1 1.91%, Cc1cccc(-c2nc3c4ccccc4n(Cc4cccc(Cl)c4)c(=O)n3n2)c1 -1.46%, O=C(CN1C(=O)COc2ccc(S(=O)(=O)N3CCOCC3)cc21)N1CCN(c2cccc(Cl)c2)CC1 1.58%, COc1ccc(NC(=O)c2ccc3c(SCC(=O)O)c4c(nc3c2)CCCC4)c(OC)c1 -5.05%, CCc1ccc(NC(=O)CSc2ccc(-c3ccccn3)nn2)cc1 13%, O=C(NCCCN1CCN(c2ccc(F)cc2)CC1)c1cnn(-c2ccc(F)cc2)c1-n1cccc1 -22.8%, CN(C)CCC=C1c2ccccc2CCc2ccccc21 -15.8%, Cc1ccnc2c1NC(=O)c1cccnc1N2C1CC1 -21%, O=S(=O)(c1ccc(-c2cc(C(F)(F)F)on2)s1)N1CCN(c2ccc(F)cc2)CC1 -2.98%, Cc1cc(Br)ccc1NC(=O)Cn1cc(S(=O)(=O)N2CCN(c3ccccc3F)CC2)c2ccccc2c1=O -7.22%, COc1ccc(NC(=O)C2CCCN(c3ncnc4c3nc3n4CCCCC3)C2)c(OC)c1 (stereo not given) -20.6%, COc1cc(NS(=O)(=O)c2cc3c(cc2C)N(C)CCO3)cc(OC)c1OC -0.786%, C#CCSc1nc(-c2ccccc2)cc(-c2ccccc2)c1C#N -13.1%, Cc1ccc(-n2c3c(cc(-c4nc(-c5ccc(Cl)cc5)cs4)c2=O)C(=O)CC(C)(C)C3)cc1C -12.8%

Potency, active:
COC(=O)c1ccccc1NC(=O)CSc1nc(-c2ccccc2)cc(C(F)(F)F)n1 10 µM
